This is one part of the list. Further columns of the screen follow, without active or inactive calls.

Common to all, as to assay: Primary Screen for Target Class Profiling of Small Molecule Inhibitors of Methyltransferases
The target in assay [1] is Glycine N-methyltransferase (Homo sapiens) (UniProt Q14749). The conditions noted are these: purified enzyme, MTase-Glo SAH luminescence; measured here: GNMT inhibition; at 40 µM; stronger effect = lower value. In a few lines: (§1)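 Each enzyme was reacted with SAM and its substrate, with compounds tested once at 40 uM; SAH formed was read by MTase-Glo luminescence.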
The target in assay [2] is Guanidinoacetate N-methyltransferase (Homo sapiens) (UniProt Q14353). As to conditions: purified enzyme, MTase-Glo SAH luminescence; measured here: GAMT inhibition; at 40 µM; stronger effect = lower value. The method in brief:
as §1

Assay [3] concerns the target Histamine N-methyltransferase (Homo sapiens) (UniProt P50135). As to conditions: purified enzyme, MTase-Glo SAH luminescence; measured here: HNMT inhibition; at 40 µM; stronger effect = lower value. In a few lines: as §1
Assay [4] concerns the target Nicotinamide N-methyltransferase (Homo sapiens) (UniProt P40261). As to conditions: purified enzyme, MTase-Glo SAH luminescence; measured here: NNMT inhibition; at 40 µM; stronger effect = lower value. In a few lines: as §1
Assay [5] deals with Phenylethanolamine N-methyltransferase (Homo sapiens) (UniProt P11086). As to conditions: purified enzyme, MTase-Glo SAH luminescence; measured here: PNMT inhibition; at 40 µM; stronger effect = lower value. In a few lines:
as §1
% is scaled to controls: 0 for no effect and ±100 for the full control effect.

`CCCn1cnc2c1CN(S(=O)(=O)c1ccc(F)cc1)[C@H](C(=O)OC)C2`: the activity change, negative = inhibition in assay [1] is -4.18%; in assay [2], -7.17%; in assay [3], -1.03%; in assay [4], -13.7%; in assay [5], -8.35%.
Taken in the same sequence, the figures for `CCCN(CCC)C(=O)c1coc(COc2ccc3sc(C)nc3c2)n1` were -3.18%, 3.69%, 1.72%, -6.81% and 13.4%.
The like results for `CCc1ncc(-c2c(-c3ccccc3)ncn2CCCOc2cccnc2)cn1` were, in that order, -1.02%, 1.49%, -4.11%, -4.42% and 4.67%.
As to `CCCN1C(=O)c2c(C(=O)NCCc3ccc(Cl)cc3)ncn2CC1(C)C(=O)NCc1ccc(C)cc1` (stereo not given), the activity change, negative = inhibition is -1.07% in assay [1]; 0% in assay [2]; 10.7% in assay [3]; 5% in assay [4]; -13.7% in assay [5].
The like results for `CCOCCN1C(=O)COC[C@@H]1[C@H](O)c1ccc(NC(=O)c2cccc(C#N)c2)cc1` were, in that order, -3.24%, -1.69%, 0.403%, -5.3% and -27.4%.
With `O=C(NC1CCCC1)N1CCCC(Cn2cnc3cccnc32)C1` (stereo not given), the activity change, negative = inhibition in assay [1] is -0.89%; in assay [2] it was 0.47%; in assay [3] it was 1.9%; in assay [4] it was -2.59%; in assay [5], 2.46%.
Regarding `CN(CCOc1cccc(Cl)c1)C(=O)c1cccc(CCC(C)(C)O)c1`, the activity change, negative = inhibition was -4.2% in assay [1]; -0.505% in assay [2]; -0.26% in assay [3]; -8.74% in assay [4]; 0.709% in assay [5].
The like results for `COCCCNC(=O)C1(C)Cn2nc(-c3ccccc3)cc2C(=O)N1Cc1ccc(OC)cc1` (stereo not given) were, in that order, 0.109%, 0%, 1.3%, 0.243% and -3.47%.
In the case of `NC1(C(=O)O)CCCCC1`, the activity change, negative = inhibition in assay [1] was 2.85%; in assay [2] it was 14.4%; in assay [3], 5.71%; in assay [4] it was -1.37%; in assay [5], 12.5%.
The like results for `COc1cccc(CSc2nnc3n(Cc4ccccc4)c(=O)c4ccccc4n23)c1` were, in that order, 1.43%, 0%, -0.282%, -3.54% and 2.5%.
Taken in the same sequence, the figures for `COC(=O)c1cc2n(n1)CC(C)(C(=O)NC1CCCCC1)N(c1ccc(C)cc1C)C2=O` (stereo not given) were 3.79%, 0%, 7.98%, 8.96% and 5.68%.
The like results for `CCN(CC)CCN1C(=O)c2ccc(-c3ccco3)n2CC1(C)C(=O)NC1CCCCC1` (stereo not given) were, in that order, 3.89%, 0%, 7.32%, 8.61% and 1.06%.
On to `COc1cc(Br)c(Nc2nc(-c3c(C)nc4ncccn34)cs2)c(Br)c1`, for which the activity change, negative = inhibition was -12.8% in assay [1]; -2.81% in assay [2]; -5.88% in assay [3]; -27.6% in assay [4]; -3.27% in assay [5].
Taken in the same sequence, the figures for `O=C(O)CCCCCCCC(=O)O` were -5.77%, 2.1%, -0.439%, -8.46% and -3.23%.
As to `COc1ccc(CN2C(=O)c3cc4ccccc4n3CC2(C)C(=O)NCCC(C)C)c(OC)c1` (stereo not given), the activity change, negative = inhibition in assay [1] is 1.76%; in assay [2], 3.93%; in assay [3], 2.19%; in assay [4] it was -4.78%; in assay [5], -2.65%.
Taken in the same sequence, the figures for `COc1cccc(CN2C(=O)c3cc4ccc(OC)cc4n3CC2(C)C(=O)NCC2CCCO2)c1` (stereo not given) were 2.18%, 4.53%, 4.55%, 1.47% and 1.09%.
For the molecule `CC(C)CCNC(=O)C1c2c(n(C)c3ccccc23)SCC(=O)N1c1cccc(C(F)(F)F)c1` (stereo not given), the activity change, negative = inhibition in assay [1] was 8.44%; in assay [2], 0.881%; in assay [3], 1.97%; in assay [4], -2.75%; in assay [5] it was 4.03%.
Consider `COc1ccccc1CNC(=O)C1(C)Cn2c(cc3ccccc32)C(=O)N1CCc1cccs1` (stereo not given), for which the activity change, negative = inhibition in assay [1] amounted to 6.84%; in assay [2], 2.48%; in assay [3], 7.27%; in assay [4] it was 9.62%; in assay [5], 1.2%.
The like results for `O=C(N[C@H]1CCN2C(=O)c3cc(-c4ccc(Cl)cc4)ccc3NC(=O)[C@H]12)C1CCCC1` were, in that order, -6%, -1.5%, -0.182%, -7.04% and -0.954%.
With `CC1CCC2(O1)C(C)(C)CC(O[C@@H]1O[C@H](CO[C@@H]3OC[C@](O)(CO)[C@H]3O)[C@@H](O)[C@H](O)[C@H]1O)CC2(C)O` (stereo not given in full), the activity change, negative = inhibition in assay [1] was 5.9%; in assay [2], 2.95%; in assay [3], 10.3%; in assay [4] it was -7.69%; in assay [5], 0.788%.
Taken in the same sequence, the figures for `O=C(CCn1ccc2cc(S(=O)(=O)N3CCCCC3)ccc21)NCCc1c[nH]c2ccccc12` were 4.79%, 0%, -8.81%, 6.34% and 2.54%.
As for `O=C(C(c1ccccc1)c1ccccc1)N1CCN(CC(O)COc2cccc3ncccc23)CC1` (stereo not given), the activity change, negative = inhibition in assay [1] is -12.1%; in assay [2] it was -11.3%; in assay [3], -7.1%; in assay [4], -32.6%; in assay [5], -13.2%.
As for `Cc1cc(O[C@@H]2O[C@H](COC(=O)CC(=O)O)[C@@H](O)[C@H](O)[C@H]2O)c(C(C)C)cc1O`, the activity change, negative = inhibition in assay [1] was -2.99%; in assay [2], -0.807%; in assay [3] it was 10%; in assay [4], -14.9%; in assay [5], -5.98%.
The like results for `O=C(NCC1CC1)c1cccc(OC2CN(Cc3cc4ccccc4nc3Cl)C2)c1` were, in that order, -15.5%, 0.588%, -4.64%, -13% and -10.3%.
The like results for `CC(C)(C)C(=O)CN1C(=O)[C@H](NC(=O)Nc2cccc(C(=O)O)c2)CN(C2CCCCC2)c2ccccc21` were, in that order, 1.42%, 5.88%, 3.29%, -22.6% and 1.11%.
As for `CCn1c2c(c(=O)n1-c1ccccc1)CCN(Cc1ncccn1)C2`, the activity change, negative = inhibition in assay [1] is -9.59%; in assay [2], -8%; in assay [3] it was -17.9%; in assay [4], -12.6%; in assay [5], -12%.
Taken in the same sequence, the figures for `C=C1CC23CC(=O)C4C(CO)(CO)CCCC4(C)C2CCC1C3` (stereo not given) were -0.995%, -7.09%, -7.03%, -20.9% and -1.57%.
Taken in the same sequence, the figures for `CCCn1c(=O)c2ccc(C(=O)NC(C)CC)cc2n2c(=O)n(Cc3ccccc3Cl)nc12` (stereo not given) were 2.44%, 0.974%, 6.91%, 0.803% and 3.08%.
The like results for `C=CC(=O)N1CCC[C@@H](n2nc(-c3cccc(C(=O)Nc4ccc(C(C)C)c(C)c4)c3)c3c(N)ncnc32)C1` were, in that order, -1.65%, 19.8%, 7.77%, -19.7% and 6.38%.

The values are drawn from PubChem BioAssay AID1745853 (National Center for Advancing Translational Sciences (NCATS), 2022).
